Experimental data from the supplement of paper PMC8728848.
Some of the results follow.

Experiments:
Experiment in all cases: glycan array binding signal (z-score within array); higher = stronger binding
Details in all cases: glycan notation: IUPAC condensed, linker removed
[1] = biological target: Neu5Ac(a2-8)Neu5Ac
How it was run: (§1)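 Glycan array binding is given as a within-array Z-score, which can be read as non-binding when negative. The arrays, 3228 of them, came from the Consortium for Functional Glycomics database and were retained only where the protein sequence was available. Z-scores were averaged across arrays of the same protein sequence at different concentrations or buffers and across linkers.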

[2] = biological target: Neu5Ac(a2-8)Neu5Ac(a2-3)Gal(b1-4)Glc
How it was run: as §1

[3] = biological target: Neu5Ac(a2-8)Neu5Ac(a2-3)[GalNAc(b1-4)]Gal(b1-4)Glc
How it was run: as §1

[4] = biological target: Neu5Ac(a2-8)Neu5Ac(a2-8)Neu5Ac
How it was run: as §1

[5] = biological target: Neu5Ac(a2-8)Neu5Ac(a2-8)Neu5Ac(a2-3)Gal(b1-4)Glc
How it was run: as §1

[6] = biological target: Neu5Ac(a2-8)Neu5Ac(a2-8)Neu5Ac(a2-3)[GalNAc(b1-4)]Gal(b1-4)Glc
How it was run: as §1

[7] = biological target: Neu5Ac(a2-8)Neu5Ac(a2-8)Neu5Ac(a2-8)Neu5Ac(a2-3)[GalNAc(b1-4)]Gal(b1-4)Glc
How it was run: as §1

[8] = biological target: Neu5Ac(b2-6)Gal(b1-4)GlcNAc
How it was run: as §1

[9] = biological target: Neu5Ac(b2-6)GalNAc
How it was run: as §1

[10] = biological target: Neu5Ac9Ac(a2-3)Gal(b1-3)GlcNAc
How it was run: as §1

[11] = biological target: Neu5Ac9Ac(a2-3)Gal(b1-4)GlcNAc
How it was run: as §1

[12] = biological target: Neu5Ac9Ac(a2-6)Gal(b1-4)GlcNAc
How it was run: as §1

[13] = biological target: Neu5Gc(a2-3)Gal(b1-3)GlcNAc
How it was run: as §1

[14] = biological target: Neu5Gc(a2-3)Gal(b1-3)[Fuc(a1-4)]GlcNAc
How it was run: as §1

[15] = biological target: Neu5Gc(a2-3)Gal(b1-4)Glc
How it was run: as §1

[16] = biological target: Neu5Gc(a2-3)Gal(b1-4)GlcNAc
How it was run: as §1

[17] = biological target: Neu5Gc(a2-3)Gal(b1-4)[Fuc(a1-3)]GlcNAc
How it was run: as §1

[18] = biological target: Neu5Gc(a2-6)Gal(b1-4)GlcNAc
How it was run: as §1

[19] = biological target: Neu5Gc(a2-6)GalNAc
How it was run: as §1

[20] = biological target: Neu5Gc(b2-6)Gal(b1-4)GlcNAc
How it was run: as §1

B1: CTLY 1 (Homo sapiens), Q6ZS10 (protein)
chain: AITCPEGWLPFEGKCYYFSPSTKSWDEARMFCQENYSHLVIINSFAEHNFVAKAHGSPRVYWLGLNDRAQEGDWRWLDGSPVTLSFWEPEEPNNIHDEDCATMNKGGTWNDLSCYKTTYWICERKGLNDIFEAQKIEWHE
glycan array binding signal (z-score) [1]: -0.246 | glycan array binding signal (z-score) [2]: -0.252 | glycan array binding signal (z-score) [3]: -0.233 | glycan array binding signal (z-score) [4]: -0.242 | glycan array binding signal (z-score) [5]: -0.241 | glycan array binding signal (z-score) [6]: -0.23 | glycan array binding signal (z-score) [7]: -0.23 | glycan array binding signal (z-score) [8]: -0.25 | glycan array binding signal (z-score) [9]: -0.251 | glycan array binding signal (z-score) [10]: -0.261 | glycan array binding signal (z-score) [11]: -0.24 | glycan array binding signal (z-score) [12]: -0.246 | glycan array binding signal (z-score) [13]: -0.231 | glycan array binding signal (z-score) [14]: 0.069 | glycan array binding signal (z-score) [15]: -0.243 | glycan array binding signal (z-score) [16]: -0.263 | glycan array binding signal (z-score) [17]: -0.203 | glycan array binding signal (z-score) [18]: -0.257 | glycan array binding signal (z-score) [19]: -0.226 | glycan array binding signal (z-score) [20]: -0.24
